Measurements reported in the supplement of paper PMC8728848.
This is one part of the list.

How the values were obtained:
Assay in all cases: glycan array binding signal (z-score within array); higher = stronger binding
Settings in all cases: glycan notation: IUPAC condensed, linker removed
[1] = target: Man(a1-2)Man(a1-3)[Man(a1-2)Man(a1-6)]Man
Method in brief: (§1)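 Columns mapping to the same glycan were averaged after glycan names were converted to IUPAC-condensed notation. The data come from 3228 arrays in the Consortium for Functional Glycomics database, limited to those with an available protein sequence. Binding is reported as a within-array Z-score averaged across arrays of one protein sequence and across linkers.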

[2] = target: Man(a1-2)Man(a1-3)[Man(a1-2)Man(a1-6)]Man(a1-6)[Man(a1-2)Man(a1-2)Man(a1-3)]Man
Method in brief: as §1

[3] = target: Man(a1-2)Man(a1-3)[Man(a1-2)Man(a1-6)]Man(a1-6)[Man(a1-2)Man(a1-2)Man(a1-3)]Man(b1-4)GlcNAc(b1-4)GlcNAc
Method in brief: as §1

[4] = target: Man(a1-2)Man(a1-3)[Man(a1-6)]Man(a1-6)[Man(a1-2)Man(a1-3)]Man(b1-4)GlcNAc(b1-4)GlcNAc
Method in brief: as §1

[5] = target: Man(a1-2)Man(a1-6)[Man(a1-3)]Man(a1-6)[Man(a1-2)Man(a1-2)Man(a1-3)]Man
Method in brief: as §1

[6] = target: Man(a1-2)Man(a1-6)[Man(a1-3)]Man(a1-6)[Man(a1-2)Man(a1-2)Man(a1-3)]Man(b1-4)GlcNAc(b1-4)GlcNAc
Method in brief: as §1

[7] = target: Man(a1-3)[Man(a1-6)]Man
Method in brief: as §1

[8] = target: Man(a1-3)[Man(a1-6)]Man(a1-6)[Man(a1-2)Man(a1-3)]Man(b1-4)GlcNAc(b1-4)GlcNAc
Method in brief: as §1

[9] = target: Man(a1-3)[Man(a1-6)]Man(a1-6)[Man(a1-3)]Man
Method in brief: as §1

[10] = target: Man(a1-3)[Man(a1-6)]Man(a1-6)[Man(a1-3)]Man(b1-4)GlcNAc(b1-4)GlcNAc
Method in brief: as §1

[11] = target: Man(a1-3)[Man(a1-6)]Man(b1-4)GlcNAc(b1-4)GlcNAc
Method in brief: as §1

[12] = target: Man(a1-3)[Man(a1-6)]Man(b1-4)GlcNAc(b1-4)[Fuc(a1-6)]GlcNAc
Method in brief: as §1

[13] = target: Man(a1-6)Man
Method in brief: as §1

[14] = target: Man(b1-4)GlcNAc
Method in brief: as §1

[15] = target: MurNAc(b1-4)GlcNAc
Method in brief: as §1

[16] = target: Neu5Ac(a2-3)Gal
Method in brief: as §1

[17] = target: Neu5Ac(a2-3)Gal(b1-3)GalNAc
Method in brief: as §1

[18] = target: Neu5Ac(a2-3)Gal(b1-3)GalNAc(b1-3)Gal(a1-4)Gal(b1-4)Glc
Method in brief: as §1

[19] = target: Neu5Ac(a2-3)Gal(b1-3)GalNAc(b1-4)[Neu5Ac(a2-3)]Gal(b1-4)Glc
Method in brief: as §1

[20] = target: Neu5Ac(a2-3)Gal(b1-3)GalNAc(b1-4)[Neu5Ac(a2-8)Neu5Ac(a2-3)]Gal(b1-4)Glc
Method in brief: as §1

[21] = target: Neu5Ac(a2-3)Gal(b1-3)GalNAc6S
Method in brief: as §1

[22] = target: Neu5Ac(a2-3)Gal(b1-3)GlcNAc
Method in brief: as §1

[23] = target: Neu5Ac(a2-3)Gal(b1-3)GlcNAc(b1-2)Man
Method in brief: as §1

[24] = target: Neu5Ac(a2-3)Gal(b1-3)GlcNAc(b1-2)Man(a1-3)[GlcNAc(b1-4)][Neu5Ac(a2-3)Gal(b1-3)GlcNAc(b1-2)Man(a1-6)]Man(b1-4)GlcNAc(b1-4)GlcNAc
Method in brief: as §1

[25] = target: Neu5Ac(a2-3)Gal(b1-3)GlcNAc(b1-2)Man(a1-3)[Neu5Ac(a2-3)Gal(b1-3)GlcNAc(b1-2)Man(a1-6)]Man(b1-4)GlcNAc(b1-4)GlcNAc
Method in brief: as §1

[26] = target: Neu5Ac(a2-3)Gal(b1-3)GlcNAc(b1-3)Gal(b1-3)GlcNAc
Method in brief: as §1

[27] = target: Neu5Ac(a2-3)Gal(b1-3)GlcNAc(b1-3)Gal(b1-4)GlcNAc
Method in brief: as §1

[28] = target: Neu5Ac(a2-3)Gal(b1-3)GlcNAc(b1-3)GalNAc
Method in brief: as §1

[29] = target: Neu5Ac(a2-3)Gal(b1-3)GlcNAc(b1-4)Gal(b1-4)Glc
Method in brief: as §1

[30] = target: Neu5Ac(a2-3)Gal(b1-3)GlcNAc(b1-6)GalNAc
Method in brief: as §1

[31] = target: Neu5Ac(a2-3)Gal(b1-3)GlcNAc6S
Method in brief: as §1

[32] = target: Neu5Ac(a2-3)Gal(b1-3)[Fuc(a1-4)]GlcNAc
Method in brief: as §1

[33] = target: Neu5Ac(a2-3)Gal(b1-3)[Fuc(a1-4)]GlcNAc(b1-3)Gal(b1-3)[Fuc(a1-4)]GlcNAc
Method in brief: as §1

[34] = target: Neu5Ac(a2-3)Gal(b1-3)[Fuc(a1-4)]GlcNAc(b1-3)Gal(b1-4)[Fuc(a1-3)]GlcNAc
Method in brief: as §1

[35] = target: Neu5Ac(a2-3)Gal(b1-3)[GlcNAc(b1-6)]GalNAc
Method in brief: as §1

[36] = target: Neu5Ac(a2-3)Gal(b1-3)[Neu5Ac(a2-6)]GalNAc
Method in brief: as §1

[37] = target: Neu5Ac(a2-3)Gal(b1-3)[Neu5Ac(a2-6)]GlcNAc(b1-3)[Fuc(a1-3)[Gal(b1-4)]GlcNAc(b1-6)]Gal(b1-4)Glc
Method in brief: as §1

[38] = target: Neu5Ac(a2-3)Gal(b1-3)]Neu5Ac(a2-3)Gal(b1-4)]GlcNAc
Method in brief: as §1

[39] = target: Neu5Ac(a2-3)Gal(b1-4)Glc
Method in brief: as §1

[40] = target: Neu5Ac(a2-3)Gal(b1-4)GlcNAc
Method in brief: as §1

[41] = target: Neu5Ac(a2-3)Gal(b1-4)GlcNAc(b1-2)Man
Method in brief: as §1

[42] = target: Neu5Ac(a2-3)Gal(b1-4)GlcNAc(b1-2)Man(a1-3)[GlcNAc(b1-4)][Neu5Ac(a2-3)Gal(b1-4)GlcNAc(b1-2)Man(a1-6)]Man(b1-4)GlcNAc(b1-4)GlcNAc
Method in brief: as §1

[43] = target: Neu5Ac(a2-3)Gal(b1-4)GlcNAc(b1-2)Man(a1-3)[Neu5Ac(a2-3)Gal(b1-4)GlcNAc(b1-2)Man(a1-6)]Man(b1-4)GlcNAc(b1-4)GlcNAc
Method in brief: as §1

[44] = target: Neu5Ac(a2-3)Gal(b1-4)GlcNAc(b1-2)Man(a1-3)[Neu5Ac(a2-3)Gal(b1-4)GlcNAc(b1-2)Man(a1-6)]Man(b1-4)GlcNAc(b1-4)[Fuc(a1-6)]GlcNAc
Method in brief: as §1

[45] = target: Neu5Ac(a2-3)Gal(b1-4)GlcNAc(b1-2)Man(a1-3)[Neu5Ac(a2-6)Gal(b1-4)GlcNAc(b1-2)Man(a1-6)]Man(b1-4)GlcNAc(b1-4)GlcNAc
Method in brief: as §1

B1: LBL-152 (Laetiporus bicolor), B0D650 (protein)
chain: MSNEYNPPLGIAFRLCGLASDRVLFSRVSPSPEVFHHPKSEVYPDQWFVAIPGSGQNAGCYAIKSKNTGKVLFSRMSPDPRVGHIDGDGKYPDNWFKFEAGSGKYAGYFRLRAVASDTVLVSRTSTGTDTQVINYPATSAKYDDQYFTILFDHHHHHH
glycan array binding signal (z-score) [1]: -0.154
glycan array binding signal (z-score) [2]: -0.159
glycan array binding signal (z-score) [3]: -0.151
glycan array binding signal (z-score) [4]: -0.16
glycan array binding signal (z-score) [5]: -0.156
glycan array binding signal (z-score) [6]: -0.159
glycan array binding signal (z-score) [7]: -0.161
glycan array binding signal (z-score) [8]: -0.156
glycan array binding signal (z-score) [9]: -0.153
glycan array binding signal (z-score) [10]: -0.15
glycan array binding signal (z-score) [11]: -0.16
glycan array binding signal (z-score) [12]: -0.159
glycan array binding signal (z-score) [13]: -0.143
glycan array binding signal (z-score) [14]: -0.149
glycan array binding signal (z-score) [15]: -0.155
glycan array binding signal (z-score) [16]: -0.159
glycan array binding signal (z-score) [17]: -0.155
glycan array binding signal (z-score) [18]: -0.15
glycan array binding signal (z-score) [19]: -0.155
glycan array binding signal (z-score) [20]: -0.145
glycan array binding signal (z-score) [21]: -0.155
glycan array binding signal (z-score) [22]: -0.154
glycan array binding signal (z-score) [23]: -0.153
glycan array binding signal (z-score) [24]: -0.152
glycan array binding signal (z-score) [25]: -0.146
glycan array binding signal (z-score) [26]: -0.16
glycan array binding signal (z-score) [27]: -0.158
glycan array binding signal (z-score) [28]: -0.153
glycan array binding signal (z-score) [29]: -0.159
glycan array binding signal (z-score) [30]: -0.148
glycan array binding signal (z-score) [31]: -0.151
glycan array binding signal (z-score) [32]: -0.148
glycan array binding signal (z-score) [33]: -0.147
glycan array binding signal (z-score) [34]: -0.148
glycan array binding signal (z-score) [35]: -0.162
glycan array binding signal (z-score) [36]: -0.158
glycan array binding signal (z-score) [37]: -0.155
glycan array binding signal (z-score) [38]: -0.156
glycan array binding signal (z-score) [39]: -0.151
glycan array binding signal (z-score) [40]: -0.158
glycan array binding signal (z-score) [41]: -0.149
glycan array binding signal (z-score) [42]: -0.151
glycan array binding signal (z-score) [43]: -0.153
glycan array binding signal (z-score) [44]: -0.16
glycan array binding signal (z-score) [45]: -0.151
